Laboratory results from PubChem BioAssay AID743279 (National Center for Advancing Translational Sciences (NCATS), 2014).
The whole screen tested about 360,000 compounds, of which about 17,000 (4.7%) were called active. The inconclusive results got no clear call from the source; some entries with a clear call stand among them for comparison. No stated cut-off is given here; in the data, active means activity change below about -50%; inconclusive means mostly about -30% to -49%; inactive means weaker than that.

test: qHTS for Inhibitors of Inflammasome Signaling: IL-1-beta AlphaLISA Primary Screen; details: THP-1 LPS/ATP IL-1B secretion, 16 h; at 57.5 µM, active compounds read low
How it was run: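 Secreted IL-1B measured by AlphaLISA bead assay after 16 h compound exposure of THP-1 cells; compounds (final up to 57.5 uM) added 1 h before LPS (250 ng/mL) and ATP (1.25 mM) stimulation; lower signal means less secretion.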
On the % scale 0 is the no-effect control and ±100 the full control effect.

SMILES	activity change
CCn1cc(C(=O)O)c(=O)c2cc(F)c(N3CCN(C(=S)Nc4ccc(OC)cc4)CC3)cc21	inconclusive: -39.1%
CCOC(=O)C1CCN(C(=O)c2ccc(S(=O)(=O)Nc3ccccc3Cl)cc2)CC1	inconclusive: -42.4%
Cc1[nH]c2ccccc2c1/C=N/NC(N)=S	inactive: -17.6%
COc1cccc(NC(=O)CN(C)C(=O)c2sc3cc(Cl)ccc3c2Cl)c1	inconclusive: -43.5%
C/C(=N\Nc1ccc(C#N)cc1[N+](=O)[O-])c1ccc(O)cc1	inconclusive: -49.1%
C[C@H](CO)N1C[C@H](C)[C@@H](CN(C)C(=O)CC2CC2)Oc2cc(Br)ccc2S1(=O)=O	inactive: 20.7%
CC1(C)Cc2c(sc3c2c(=N)n(Cc2ccco2)c(=O)n3Cc2ccc(F)cc2)CO1	inconclusive: -38.2%
CCC(C)[C@H](NC(=O)NC1CCN(Cc2ccccc2)CC1)C(=O)OC (stereo partly drawn)	inactive: 23.6%
c1ccc2c(c1)oc1c(NCCN3CCOCC3)ncnc12	inactive: -5.01%
COc1ccc(OC)c(/C=N/Nc2nncn2/N=C/c2cc(OC)ccc2OC)c1	inconclusive: -35.1%
COc1ccc(C(C(=O)NC2CCCC2)N(C(=O)c2snc(-c3ccc(F)cc3)c2N)c2cccc(F)c2)cc1 (stereo not drawn)	inactive: 39.8%
O=C(CSc1ncnc2c1nnn2-c1ccc(F)cc1)NCC1CCCO1 (stereo not drawn)	inconclusive: -46.4%
CC(C)N(Cc1ccccc1)S(=O)(=O)c1ccc(F)cc1	inactive: -19.6%
COc1ccccc1NS(=O)(=O)c1cc(NC(=O)Cc2n[nH]c(=O)c3ccccc23)ccc1Cl	inconclusive: -47.5%
COc1ccc(NS(=O)(=O)c2cc(NC(=O)c3nc4nc(C)cc(C)n4n3)ccc2C)cc1	inconclusive: -39.8%
O=C(NC1CCCCCCC1)c1cc(COc2ccc3ncccc3c2)on1	inconclusive: -41.6%
O=C(CSc1ccc([N+](=O)[O-])cc1)NCC1CCCCC1	inactive: -8.06%
CN(C)c1ccc(NC(=O)CSc2nc(N)c(C(=O)Nc3ccc(N(C)C)cc3)s2)cc1	inconclusive: -49.6%
CNc1oc(-c2ccccc2Cl)nc1P(=O)(c1ccccc1)c1ccccc1	active: -78.5%
CC1=NN(/C(=N\c2nnc(C)s2)Nc2ccc(C(C)(C)C)cc2)[C@H](c2ccc(C)cc2)S1	inconclusive: -45.8%
CCCn1c(SCC(=O)Nc2nnc(CC)s2)nnc1-c1ccncc1	inactive: 10.4%
OC(c1nnc(-c2ccccc2)o1)c1cccs1 (stereo not drawn)	inconclusive: -33.9%
N#CCCn1cc(C(=O)CN2C(=O)NC3(CCc4ccccc43)C2=O)c2ccccc21 (stereo not drawn)	inactive: 28.4%
